Screen size: about 280,000 compounds; about 1,100 (0.39%) were called active. The shares of active, inactive and inconclusive entries below differ from those in the screen. Calls follow the shape of the dose curve; as a rule, active = well fitted inhibition curve with a large enough effect; inconclusive = small, poorly fitted or top-dose-only effect, or effect the other way; inactive = flat fitted curve, though single readings scatter. Potencies of inconclusive entries are left out as doubtful fits.
Target: Microtubule-associated protein tau (Homo sapiens) (UniProt P10636)
Assay: qHTS for Inhibitors of Tau Fibril Formation, Fluorescence Polarization; also: nearly all actives have a fitted effect of over 55% in size
Conditions: K18 P301L tau heparin fibrillization, Alexa594 FP, 6 h; series mostly up to 57.7 µM
Method in brief: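 Steps: dispense K18 P301L tau (15 uM plus 0.24 uM Alexa 594 tracer, final) in pH 7 sodium acetate; add compound; add heparin (20 uM final); incubate 6 hr, 37 C; add ThT (30 uM final); after 1 hr ambient, read FP.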
Potency is read from the fitted curve at half-maximal effect; tags tell the direction and shape of the fitted curve.

Sequence of UniProt P10636 (P10636 whole entry, looked up): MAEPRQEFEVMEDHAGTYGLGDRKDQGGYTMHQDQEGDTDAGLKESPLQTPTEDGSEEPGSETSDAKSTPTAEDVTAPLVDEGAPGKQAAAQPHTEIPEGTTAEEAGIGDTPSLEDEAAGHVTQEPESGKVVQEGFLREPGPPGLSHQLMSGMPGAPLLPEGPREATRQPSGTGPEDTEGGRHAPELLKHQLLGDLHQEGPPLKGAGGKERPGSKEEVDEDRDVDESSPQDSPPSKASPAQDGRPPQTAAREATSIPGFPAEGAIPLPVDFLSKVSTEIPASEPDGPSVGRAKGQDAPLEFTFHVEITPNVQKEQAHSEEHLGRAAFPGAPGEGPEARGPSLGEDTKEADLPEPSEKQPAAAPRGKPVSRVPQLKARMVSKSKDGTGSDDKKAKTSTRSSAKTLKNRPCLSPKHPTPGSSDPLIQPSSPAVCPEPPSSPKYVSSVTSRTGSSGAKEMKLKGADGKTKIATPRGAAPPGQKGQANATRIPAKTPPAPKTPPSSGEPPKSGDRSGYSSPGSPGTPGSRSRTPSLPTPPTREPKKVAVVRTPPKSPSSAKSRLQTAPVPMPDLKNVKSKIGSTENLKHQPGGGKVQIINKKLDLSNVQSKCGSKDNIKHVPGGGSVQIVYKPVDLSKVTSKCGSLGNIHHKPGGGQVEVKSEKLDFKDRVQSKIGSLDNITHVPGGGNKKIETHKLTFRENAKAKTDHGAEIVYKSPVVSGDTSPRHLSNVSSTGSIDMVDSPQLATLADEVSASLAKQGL

| Structure (SMILES) | Potency |
| --- | --- |
| COc1cccc(C(=O)Nc2ccc(S(=O)(=O)N(Cc3ccccc3)c3ccccc3)cc2)c1 | active: 10 µM |
| Cc1cc(Br)ccc1NC(=O)CCSc1ccccc1 | inconclusive [inhibitor, single point] |
| COc1cc(NC(=O)CC2C(=O)N(c3cccc(C)c3)C(=O)N2Cc2cccs2)cc(OC)c1 (centres undefined) | inconclusive [inhibitor, partial curve] |
| Cc1cc(C)c(S(=O)(=O)NCCc2csc3nc(-c4ccc(Cl)cc4)nn23)c(C)c1 | inconclusive [inhibitor, partial curve, poor fit] |
| Cc1ccc(Nc2nc3ccccc3n3nnnc23)cc1 | inconclusive [activator, single point] |
| C=CCN(c1ccccc1OC)S(=O)(=O)c1ccc(Cl)c(C(=O)Nc2ccc(N3CCOCC3)cc2)c1 | inconclusive [activator, partial curve] |
| N=C1C(c2nc3ccccc3s2)=C(O)CN1NC(=O)c1c[nH]c2ccccc12 | inconclusive [inhibitor, single point] |
| CN1CCN(c2cc3c(c4c2[nH]c2ccccc24)C(=O)CC(C)(C)C3)CC1 | inconclusive [activator, partial curve, poor fit] |
| Cc1cccc(C)c1NC(=O)Cn1c(=O)n(CCC(=O)NCc2ccccc2Cl)c(=O)c2sccc21 | inconclusive [inhibitor, single point] |
| Cc1ccc2nc(-c3ccc(NC(=O)c4cccnc4)cc3)oc2c1 | inconclusive [inhibitor, partial curve] |
| O=C(Nc1cccc(C(F)(F)F)c1)Nc1ccc(N2CCCC2)c(S(=O)(=O)Nc2ccccc2Cl)c1 | inconclusive [inhibitor, partial curve, poor fit] |
| Cc1nc2cc(NC(=O)N(C)c3ccc4ccccc4c3)ccc2o1 | inactive |
| COc1cc(Cl)c(CC(=O)c2c[nH]c3ccccc23)cc1OC | inconclusive [inhibitor, single point] |
| CCOCC(=O)Nc1c(C(=O)Nc2ccccc2OC)oc2ccccc12 | inconclusive [inhibitor, full curve, poor fit] |
| CCOC(=O)CN(C(=O)CSc1nnc(C)n1-c1ccccc1)c1cccc([N+](=O)[O-])c1 | inactive |
| C=C(C)c1cccc(C(C)(C)NC(=O)N(C)C2CCN(C)CC2)c1 | inconclusive [inhibitor, single point] |
| COc1ccc(S(=O)(=O)N2CCOCC2)cc1NC(=O)CSc1nnc2c(n1)[nH]c1ccccc12 | inconclusive [inhibitor, partial curve] |
| C=CCNc1nc2c3ccccc3n(C(C)=O)c2s1 | inconclusive [inhibitor, single point] |
| COc1ccccc1[C@H]1C(c2cccc(C)c2)=NN(c2ccccc2)[C@@H]1CO | inconclusive [activator, partial curve] |
| O=C(COC(=O)CCCSc1nc2ccccc2[nH]1)Nc1cccc(F)c1 | inconclusive [inhibitor, single point] |

| Structure (SMILES) | Potency |
| --- | --- |
| CC(=O)c1ccc(NC(=O)Cn2c(=O)n(Cc3ccco3)c(=O)c3sc4ccccc4c32)cc1 | inconclusive [inhibitor, partial curve, poor fit] |
| NC(=O)CN(c1ccc(Cl)cc1)S(=O)(=O)c1ccccc1 | inconclusive [inhibitor, single point] |
| COc1ccc(-c2nsc(NC(=O)c3oc4cc(C)c(C)cc4c3C)n2)cc1 | inconclusive [inhibitor, single point] |
| CCN1C(=O)/C(=C/c2ccc(C)o2)N(C)C1=S | inconclusive [inhibitor, partial curve] |
| CCCn1nnnc1NC(=O)CSc1ccc(Cl)cc1 | inactive |
| Cc1ccc(NC(=O)c2c(C)nc3sc(C(=O)Nc4ccc(F)cc4)c(N)c3c2-c2ccccc2Cl)c(C)c1 | inconclusive [inhibitor, full curve] |
| O=c1c(C(c2ccccc2)c2c(O)nc3n(c2=O)CCCS3)c(O)nc2n1CCCS2 | inconclusive [inhibitor, single point] |
| COc1ccc(C2C(C#N)=C(SCC(=O)Nc3ccc(C)cc3)NC3=C2C(=O)CC(C)(C)C3)cc1 (centres undefined) | inconclusive [inhibitor, partial curve, poor fit] |
| COc1cc(/C=C2/S/C(=N/S(=O)(=O)c3ccccc3)NC2=O)c([N+](=O)[O-])cc1OC | inconclusive [inhibitor, single point] |
| CCOc1ccc(Nc2nc(N3CCCC3)nc(N3CCN(c4ccc(OC)cc4)CC3)n2)cc1 | inconclusive [activator, partial curve, poor fit] |
| c1ccc(C2CN3CCSC3=N2)cc1 (centres undefined) | inactive |
| COc1cccc(-c2cc(=O)c3cc(O)ccc3o2)c1 | inconclusive [inhibitor, single point] |
| O=C(NCc1ccco1)c1cccnc1-c1nc2ccccc2s1 | inconclusive [inhibitor, single point] |
| Cn1ncc2c(NNC(=O)c3ccc(O)cc3)ncnc21 | inconclusive [inhibitor, single point] |
| COc1ccc(C2C=C(c3ccccc3)Nc3nc(NC(=O)c4ccc(C)cc4)nn32)cc1 (centres undefined) | inactive |
| COc1ccc(-c2ccc3c(N)c(C(=O)NC(C)C)sc3n2)cc1OC | inconclusive [activator, single point] |
| COc1ccc(OC)c(C2CC(=O)N3CN(c4ccccc4F)CSC3=C2C#N)c1 (centres undefined) | active: 25.1 µM |
| Cc1cc(O)c(-c2cc(C(=O)Nc3cccnc3)[nH]n2)cc1C | inconclusive [inhibitor, single point] |
| O=C(Nc1ccc2oc(-c3cccc4ccccc34)nc2c1)c1ncn[nH]1 | inconclusive [inhibitor, single point] |

From PubChem BioAssay AID1468 (National Center for Advancing Translational Sciences (NCATS), 2008)
